# Laboratory results published in the supplement of paper PMC8728848.
# The list shows a part of the results.
# Key:
# Test in all cases: glycan array binding signal (z-score within array); higher = stronger binding
# Settings in all cases: glycan notation: IUPAC condensed, linker removed
# [1] = molecular target: Fuc(a1-3)[Gal(b1-4)]GlcNAc
# Outline: (§1)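 Arrays were curated from the Consortium for Functional Glycomics database, 3228 in total, and kept only where the protein sequence was available. Binding is expressed as a within-array Z-score. This score was averaged across arrays of the same protein sequence at different concentrations or buffers and across linkers, and negative values can be read as non-binding.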
# [2] = molecular target: Fuc(a1-3)[Gal(b1-4)]GlcNAc(b1-4)Gal(b1-4)[Fuc(a1-3)]GlcNAc
# Outline: as §1
# [3] = molecular target: Fuc(a1-3)[Gal(b1-4)]GlcNAc(b1-4)Gal(b1-4)[Fuc(a1-3)]GlcNAc(b1-4)Gal(b1-4)[Fuc(a1-3)]GlcNAc
# Outline: as §1
# [4] = molecular target: Fuc(a1-3)[Gal3S(b1-4)]GlcNAc
# Outline: as §1
# [5] = molecular target: Fuc(a1-3)[GalNAc(b1-4)]GlcNAc
# Outline: as §1
# [6] = molecular target: Fuc(a1-4)GlcNAc
# Outline: as §1
# [7] = molecular target: Fuc(b1-3)GlcNAc
# Outline: as §1
# [8] = molecular target: Gal(a1-2)Gal
# Outline: as §1
# [9] = molecular target: Gal(a1-3)Gal
# Outline: as §1
# [10] = molecular target: Gal(a1-3)Gal(b1-3)GlcNAc
# Outline: as §1
# [11] = molecular target: Gal(a1-3)Gal(b1-4)Glc
# Outline: as §1
# [12] = molecular target: Gal(a1-3)Gal(b1-4)GlcNAc
# Outline: as §1
# [13] = molecular target: Gal(a1-3)Gal(b1-4)[Fuc(a1-3)]GlcNAc
# Outline: as §1
# [14] = molecular target: Gal(a1-3)GalNAc
# Outline: as §1
# [15] = molecular target: Gal(a1-3)[Gal(a1-4)]Gal(b1-4)GlcNAc
# Outline: as §1
# [16] = molecular target: Gal(a1-4)Gal(b1-4)Glc
# Outline: as §1
# [17] = molecular target: Gal(a1-4)Gal(b1-4)GlcNAc
# Outline: as §1
# [18] = molecular target: Gal(a1-4)GlcNAc
# Outline: as §1
# [19] = molecular target: Gal(a1-6)Glc
# Outline: as §1
# [20] = molecular target: Gal(b1-2)Gal
# Outline: as §1
# [21] = molecular target: Gal(b1-3)Gal
# Outline: as §1
# [22] = molecular target: Gal(b1-3)GalNAc
# Outline: as §1
# [23] = molecular target: Gal(b1-3)GalNAc(b1-3)Gal(a1-4)Gal(b1-4)Glc
# Outline: as §1
# [24] = molecular target: Gal(b1-3)GalNAc(b1-4)Gal(b1-4)Glc
# Outline: as §1
# [25] = molecular target: Gal(b1-3)GalNAc(b1-4)[Neu5Ac(a2-3)]Gal(b1-4)Glc
# Outline: as §1
# [26] = molecular target: Gal(b1-3)GlcNAc
# Outline: as §1
# [27] = molecular target: Gal(b1-3)GlcNAc(b1-3)Gal(b1-4)Glc
# Outline: as §1
# [28] = molecular target: Gal(b1-3)GlcNAc(b1-3)Gal(b1-4)GlcNAc
# Outline: as §1
# [29] = molecular target: Gal(b1-3)[Fuc(a1-4)]GlcNAc
# Outline: as §1
# [30] = molecular target: Gal(b1-3)[Fuc(a1-4)]GlcNAc(b1-3)Gal(b1-4)GlcNAc
# Outline: as §1
# [31] = molecular target: Gal(b1-3)[Fuc(a1-4)]GlcNAc(b1-3)Gal(b1-4)[Fuc(a1-3)]GlcNAc
# Outline: as §1
# [32] = molecular target: Gal(b1-3)[GlcNAc(b1-6)]GalNAc
# Outline: as §1
# [33] = molecular target: Gal(b1-3)[Neu5Ac(a2-6)]GalNAc
# Outline: as §1
# [34] = molecular target: Gal(b1-3)[Neu5Ac(a2-6)]GlcNAc(b1-6)Gal(b1-4)Glc
# Outline: as §1
# [35] = molecular target: Gal(b1-3)[Neu5Ac(b2-6)]GalNAc
# Outline: as §1
# [36] = molecular target: Gal(b1-4)GalNAc(a1-3)[Fuc(a1-2)]Gal(b1-4)GlcNAc
# Outline: as §1
# [37] = molecular target: Gal(b1-4)GalNAc(b1-3)[Fuc(a1-2)]Gal(b1-4)GlcNAc
# Outline: as §1
# [38] = molecular target: Gal(b1-4)Glc
# Outline: as §1
# [39] = molecular target: Gal(b1-4)Glc6S
# Outline: as §1
# [40] = molecular target: Gal(b1-4)GlcNAc
# Outline: as §1
# [41] = molecular target: Gal(b1-4)GlcNAc(b1-2)Man(a1-3)[Gal(b1-4)GlcNAc(b1-2)Man(a1-6)]Man(b1-4)GlcNAc(b1-4)GlcNAc
# Outline: as §1
# [42] = molecular target: Gal(b1-4)GlcNAc(b1-3)Gal(b1-4)Glc
# Outline: as §1
# [43] = molecular target: Gal(b1-4)GlcNAc(b1-3)Gal(b1-4)GlcNAc
# Outline: as §1
# [44] = molecular target: Gal(b1-4)GlcNAc(b1-3)Gal(b1-4)GlcNAc(b1-3)Gal(b1-4)GlcNAc
# Outline: as §1
# [45] = molecular target: Gal(b1-4)GlcNAc(b1-3)Gal(b1-4)[Fuc(a1-3)]GlcNAc(b1-3)Gal(b1-4)[Fuc(a1-3)]GlcNAc
# Outline: as §1
binder,measurement,setting,value
"CLEC7A (Homo sapiens), Q9BXN2 (protein) MEYHPDLENLDEDGYTQLHFDSQSNTRIAVVSEKGSCAASPPWRLIAVILGILCLVILVIAVVLGTMAIWRSNSGSNTLENGYFLSRNKENHSQPTQSSLEDSVTPTKAVKTTGVLSSPCPPNWIIYEKSCYLFSMSLNSWDGSKRQCWQLGSNLLKIDSSNELGFIVKQVSSQPDNSFWIGLSRPQTEVPWLWEDGSTFSSNLFQIRTTATQENPSPNCVWIHVSVIYDQLCSVPSYSICEKKFSM",glycan array binding signal (z-score),[1],-0.765
same,glycan array binding signal (z-score),[2],0.343
same,glycan array binding signal (z-score),[3],0.278
same,glycan array binding signal (z-score),[4],0.695
same,glycan array binding signal (z-score),[5],-0.149
same,glycan array binding signal (z-score),[6],-0.49
same,glycan array binding signal (z-score),[7],-0.081
same,glycan array binding signal (z-score),[8],-0.328
same,glycan array binding signal (z-score),[9],-0.468
same,glycan array binding signal (z-score),[10],-0.067
same,glycan array binding signal (z-score),[11],-0.102
same,glycan array binding signal (z-score),[12],-0.977
same,glycan array binding signal (z-score),[13],0.017
same,glycan array binding signal (z-score),[14],0.056
same,glycan array binding signal (z-score),[15],0.397
same,glycan array binding signal (z-score),[16],-0.643
same,glycan array binding signal (z-score),[17],-0.565
same,glycan array binding signal (z-score),[18],-0.747
same,glycan array binding signal (z-score),[19],-0.429
same,glycan array binding signal (z-score),[20],1.31
same,glycan array binding signal (z-score),[21],0.077
same,glycan array binding signal (z-score),[22],0.042
same,glycan array binding signal (z-score),[23],-0.778
same,glycan array binding signal (z-score),[24],-0.395
same,glycan array binding signal (z-score),[25],-0.084
same,glycan array binding signal (z-score),[26],0.619
same,glycan array binding signal (z-score),[27],-0.359
same,glycan array binding signal (z-score),[28],0.465
same,glycan array binding signal (z-score),[29],-0.31
same,glycan array binding signal (z-score),[30],-0.502
same,glycan array binding signal (z-score),[31],0.106
same,glycan array binding signal (z-score),[32],-0.25
same,glycan array binding signal (z-score),[33],-0.478
same,glycan array binding signal (z-score),[34],-0.613
same,glycan array binding signal (z-score),[35],-0.132
same,glycan array binding signal (z-score),[36],-0.055
same,glycan array binding signal (z-score),[37],-0.328
same,glycan array binding signal (z-score),[38],-0.184
same,glycan array binding signal (z-score),[39],0.451
same,glycan array binding signal (z-score),[40],-0.319
same,glycan array binding signal (z-score),[41],-1.03
same,glycan array binding signal (z-score),[42],0.542
same,glycan array binding signal (z-score),[43],-0.463
same,glycan array binding signal (z-score),[44],0.389
same,glycan array binding signal (z-score),[45],-0.174
